# Reference: patent publication US9474759B2 (priority 2011, dated 2016)
# Target: norovirus 3CLpro (Norovirus, UniProt Q83883)
# Experiment: biochemical
row,Structure (SMILES),pIC50
1,CC(C)C[C@H](NC(=O)OCc1ccccc1)C(=O)N[C@@H](CC1CCNC1=O)C(O)C(=O)NC(C)C (stereo partly drawn) [Compound 5a],4.34
2,CC(C)C[C@H](NC(=O)OCc1ccccc1)C(=O)N[C@@H](CC1CCNC1=O)C(O)C(=O)NC1CC1 (stereo partly drawn) [Compound 5b],< 4.30
3,CCCCNC(=O)C(O)[C@H](CC1CCNC1=O)NC(=O)[C@H](CC(C)C)NC(=O)OCc1ccccc1 (stereo partly drawn) [Compound 5c],< 4.30
4,CCOC(=O)CNC(=O)C(O)[C@H](CC1CCNC1=O)NC(=O)[C@H](CC(C)C)NC(=O)OCc1ccccc1 (stereo partly drawn) [Compound 5d],< 4.30
5,CC(C)C[C@H](NC(=O)OCc1ccccc1)C(=O)N[C@@H](CC1CCNC1=O)C(O)C(=O)NC1CCCCC1 (stereo partly drawn) [Compound 5e],< 4.30
6,CC(C)C[C@H](NC(=O)OCc1ccccc1)C(=O)N[C@@H](CC1CCNC1=O)C(O)C(=O)NCc1ccccc1 (stereo partly drawn) [Compound 5f],< 4.30
7,CC(C)C[C@H](NC(=O)OCc1ccccc1)C(=O)N[C@@H](CC1CCNC1=O)C(O)C(=O)NC(C)(C)C (stereo partly drawn) [Compound 5g],< 4.30
8,CC(C)NC(=O)C(O)[C@H](CC1CCNC1=O)NC(=O)[C@H](Cc1ccccc1)NC(=O)OCc1ccccc1 (stereo partly drawn) [Compound 5h],4.64
9,CC(C)C[C@H](NC(=O)OCc1ccccc1)C(=O)N[C@@H](CC1CCNC1=O)C(=O)C(=O)NC1CC1 (stereo partly drawn) [Compound 6b],5.47
10,CCCCNC(=O)C(=O)[C@H](CC1CCNC1=O)NC(=O)[C@H](CC(C)C)NC(=O)OCc1ccccc1 (stereo partly drawn) [Compound 6c],5.39
11,CCOC(=O)CNC(=O)C(=O)[C@H](CC1CCNC1=O)NC(=O)[C@H](CC(C)C)NC(=O)OCc1ccccc1 (stereo partly drawn) [Compound 6d],5.68
12,CC(C)C[C@H](NC(=O)OCc1ccccc1)C(=O)N[C@@H](CC1CCNC1=O)C(=O)C(=O)NC1CCCCC1 (stereo partly drawn) [Compound 6e],5.46
13,CC(C)C[C@H](NC(=O)OCc1ccccc1)C(=O)N[C@@H](CC1CCNC1=O)C(=O)C(=O)NCc1ccccc1 (stereo partly drawn) [Compound 6f],5.15
14,CC(C)C[C@H](NC(=O)OCc1ccccc1)C(=O)N[C@@H](CC1CCNC1=O)C(=O)C(=O)NC(C)(C)C (stereo partly drawn) [Compound 6g],5.55
15,CC(C)NC(=O)C(=O)[C@H](CC1CCNC1=O)NC(=O)[C@H](Cc1ccccc1)NC(=O)OCc1ccccc1 (stereo partly drawn) [Compound 6h],4.67
16,CC(C)C[C@H](NC(=O)OCc1ccccc1)C(=O)N[C@@H](CC1CCNC1=O)C(O)c1nccs1 (stereo partly drawn) [Compound 7b],4.91
17,CC(C)C[C@H](NC(=O)OCc1ccccc1)C(=O)N[C@@H](CC1CCNC1=O)C(=O)c1ncco1 (stereo partly drawn) [Compound 8a],5.64
18,CC(C)C[C@H](NC(=O)OCc1ccccc1)C(=O)N[C@@H](CC1CCNC1=O)C(=O)c1nccs1 (stereo partly drawn) [Compound 8b],5.06

# pIC50: −log10 of the molar value.
